# Some of the results follow.
# B1: Cohesin-marm-DC-ASGPR (protein)
# chain: LDITSHHHHHHDDLDAVRIKVDTVNAKPGDTVRIPVRFSGIPSKGIANCDFVYSYDPNVLEIIEIEPGDIIVDPNPDKSFDTAVYPDRKIIVFLFAEDSGTGAYAITKDGVFATIVAKVKEGAPNGLSVIKFVEVGGFANNDLVEQKTQFFDGGVNVGDTTEPATPTTPVTTPTTTDDLDAASSKFQRDLVTLRTDFSNFTSNTLAEIQALTSQGSSLQETIASLKAEVEGHKQELQAGASELQEHNKQKAHLGRCPHTCVCPSSFVCVPVHSEILLRVQQLVQDLNKLSCQVAILKNNATTERTCCPINWVEHQGSCYWFSRSGKTWPEAERYCQLENTHLVVINSREEQNFVQAHLGSAYTWMGLSDPEGVWKWVDGTDYSSGFQNWKPGQPDDWQGHGLGGGEDCAHFHPDGRWNDDVCQRSYHWVCEAGLTQASQDSHAS
# Legend:
# Test in all cases: glycan array binding signal (z-score within array); higher = stronger binding
# Conditions in all cases: glycan notation: IUPAC condensed, linker removed
# [1] = target: Neu5Ac(a2-3)Gal(b1-3)[Fuc(a1-4)]GlcNAc
# In short: (§1)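 The binding signal is a Z-score computed within each array and averaged over linkers. Arrays of the same protein sequence at different concentrations or buffers were also averaged together. Data originate from 3228 arrays in the Consortium for Functional Glycomics database, kept only where the protein sequence was available.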
# [2] = target: Neu5Ac(a2-3)Gal(b1-3)[Fuc(a1-4)]GlcNAc(b1-3)Gal(b1-3)[Fuc(a1-4)]GlcNAc
# In short: as §1
# [3] = target: Neu5Ac(a2-3)Gal(b1-3)[Fuc(a1-4)]GlcNAc(b1-3)Gal(b1-4)[Fuc(a1-3)]GlcNAc
# In short: as §1
# [4] = target: Neu5Ac(a2-3)Gal(b1-3)[GlcNAc(b1-6)]GalNAc
# In short: as §1
# [5] = target: Neu5Ac(a2-3)Gal(b1-3)[Neu5Ac(a2-6)]GalNAc
# In short: as §1
# [6] = target: Neu5Ac(a2-3)Gal(b1-3)[Neu5Ac(a2-6)]GlcNAc(b1-3)[Fuc(a1-3)[Gal(b1-4)]GlcNAc(b1-6)]Gal(b1-4)Glc
# In short: as §1
# [7] = target: Neu5Ac(a2-3)Gal(b1-3)]Neu5Ac(a2-3)Gal(b1-4)]GlcNAc
# In short: as §1
# Neu5Ac(a2-3)Gal(b1-4)Glc = target: Neu5Ac(a2-3)Gal(b1-4)Glc
# In short: as §1
# [8] = target: Neu5Ac(a2-3)Gal(b1-4)GlcNAc
# In short: as §1
# [9] = target: Neu5Ac(a2-3)Gal(b1-4)GlcNAc(b1-2)Man
# In short: as §1
# [10] = target: Neu5Ac(a2-3)Gal(b1-4)GlcNAc(b1-2)Man(a1-3)[GlcNAc(b1-4)][Neu5Ac(a2-3)Gal(b1-4)GlcNAc(b1-2)Man(a1-6)]Man(b1-4)GlcNAc(b1-4)GlcNAc
# In short: as §1
# [11] = target: Neu5Ac(a2-3)Gal(b1-4)GlcNAc(b1-2)Man(a1-3)[Neu5Ac(a2-3)Gal(b1-4)GlcNAc(b1-2)Man(a1-6)]Man(b1-4)GlcNAc(b1-4)GlcNAc
# In short: as §1
# [12] = target: Neu5Ac(a2-3)Gal(b1-4)GlcNAc(b1-2)Man(a1-3)[Neu5Ac(a2-3)Gal(b1-4)GlcNAc(b1-2)Man(a1-6)]Man(b1-4)GlcNAc(b1-4)[Fuc(a1-6)]GlcNAc
# In short: as §1
# [13] = target: Neu5Ac(a2-3)Gal(b1-4)GlcNAc(b1-2)Man(a1-3)[Neu5Ac(a2-6)Gal(b1-4)GlcNAc(b1-2)Man(a1-6)]Man(b1-4)GlcNAc(b1-4)GlcNAc
# In short: as §1
# [14] = target: Neu5Ac(a2-3)Gal(b1-4)GlcNAc(b1-2)[Neu5Ac(a2-3)Gal(b1-4)GlcNAc(b1-4)]Man(a1-3)[GlcNAc(b1-4)][Neu5Ac(a2-3)Gal(b1-4)GlcNAc(b1-2)[Neu5Ac(a2-3)Gal(b1-4)GlcNAc(b1-6)]Man(a1-6)]Man(b1-4)GlcNAc(b1-4)GlcNAc
# In short: as §1
# [15] = target: Neu5Ac(a2-3)Gal(b1-4)GlcNAc(b1-2)[Neu5Ac(a2-3)Gal(b1-4)GlcNAc(b1-4)]Man(a1-3)[GlcNAc(b1-4)][Neu5Ac(a2-3)Gal(b1-4)GlcNAc(b1-4)Man(a1-6)]Man(b1-4)GlcNAc(b1-4)GlcNAc
# In short: as §1
# [16] = target: Neu5Ac(a2-3)Gal(b1-4)GlcNAc(b1-2)[Neu5Ac(a2-3)Gal(b1-4)GlcNAc(b1-6)]Man(a1-6)[Neu5Ac(a2-3)Gal(b1-4)GlcNAc(b1-2)Man(a1-3)]Man(b1-4)GlcNAc(b1-4)GlcNAc
# In short: as §1
# [17] = target: Neu5Ac(a2-3)Gal(b1-4)GlcNAc(b1-2)[Neu5Ac(a2-3)Gal(b1-4)GlcNAc(b1-6)]Man(a1-6)[Neu5Ac(a2-3)Gal(b1-4)GlcNAc(b1-2)Man(a1-3)][GlcNAc(b1-4)]Man(b1-4)GlcNAc(b1-4)GlcNAc
# In short: as §1
# [18] = target: Neu5Ac(a2-3)Gal(b1-4)GlcNAc(b1-3)Gal
# In short: as §1
# [19] = target: Neu5Ac(a2-3)Gal(b1-4)GlcNAc(b1-3)Gal(b1-3)GlcNAc
# In short: as §1
# [20] = target: Neu5Ac(a2-3)Gal(b1-4)GlcNAc(b1-3)Gal(b1-4)GlcNAc
# In short: as §1
# [21] = target: Neu5Ac(a2-3)Gal(b1-4)GlcNAc(b1-3)Gal(b1-4)GlcNAc(b1-2)Man(a1-3)[Neu5Ac(a2-3)Gal(b1-4)GlcNAc(b1-3)Gal(b1-4)GlcNAc(b1-2)Man(a1-6)]Man(b1-4)GlcNAc(b1-4)GlcNAc
# In short: as §1
# [22] = target: Neu5Ac(a2-3)Gal(b1-4)GlcNAc(b1-3)Gal(b1-4)GlcNAc(b1-3)Gal(b1-4)GlcNAc
# In short: as §1
# [23] = target: Neu5Ac(a2-3)Gal(b1-4)GlcNAc(b1-3)Gal(b1-4)GlcNAc(b1-3)Gal(b1-4)GlcNAc(b1-2)Man(a1-3)[Neu5Ac(a2-3)Gal(b1-4)GlcNAc(b1-3)Gal(b1-4)GlcNAc(b1-3)Gal(b1-4)GlcNAc(b1-2)Man(a1-6)]GalNAc
# In short: as §1
# [24] = target: Neu5Ac(a2-3)Gal(b1-4)GlcNAc(b1-3)Gal(b1-4)GlcNAc(b1-3)GalNAc
# In short: as §1
# [25] = target: Neu5Ac(a2-3)Gal(b1-4)GlcNAc(b1-3)Gal(b1-4)GlcNAc(b1-3)[Neu5Ac(a2-3)Gal(b1-4)GlcNAc(b1-3)Gal(b1-4)GlcNAc(b1-6)]GalNAc
# In short: as §1
# [26] = target: Neu5Ac(a2-3)Gal(b1-4)GlcNAc(b1-3)Gal(b1-4)GlcNAc(b1-6)[Gal(b1-3)]GalNAc
# In short: as §1
# [27] = target: Neu5Ac(a2-3)Gal(b1-4)GlcNAc(b1-3)Gal(b1-4)[Fuc(a1-3)]GlcNAc
# In short: as §1
# [28] = target: Neu5Ac(a2-3)Gal(b1-4)GlcNAc(b1-3)GalNAc
# In short: as §1
# [29] = target: Neu5Ac(a2-3)Gal(b1-4)GlcNAc(b1-3)[Neu5Ac(a2-3)Gal(b1-4)GlcNAc(b1-6)]GalNAc
# In short: as §1
binder,measurement,setting,value
B1,glycan array binding signal (z-score),[1],-0.304
same,glycan array binding signal (z-score),[2],-0.221
same,glycan array binding signal (z-score),[3],-0.285
same,glycan array binding signal (z-score),[4],-0.303
same,glycan array binding signal (z-score),[5],-0.294
same,glycan array binding signal (z-score),[6],-0.31
same,glycan array binding signal (z-score),[7],-0.294
same,glycan array binding signal (z-score),Neu5Ac(a2-3)Gal(b1-4)Glc,-0.304
same,glycan array binding signal (z-score),[8],-0.295
same,glycan array binding signal (z-score),[9],-0.146
same,glycan array binding signal (z-score),[10],-0.311
same,glycan array binding signal (z-score),[11],-0.302
same,glycan array binding signal (z-score),[12],-0.3
same,glycan array binding signal (z-score),[13],-0.313
same,glycan array binding signal (z-score),[14],-0.13
same,glycan array binding signal (z-score),[15],-0.098
same,glycan array binding signal (z-score),[16],-0.297
same,glycan array binding signal (z-score),[17],-0.294
same,glycan array binding signal (z-score),[18],-0.313
same,glycan array binding signal (z-score),[19],-0.305
same,glycan array binding signal (z-score),[20],-0.307
same,glycan array binding signal (z-score),[21],-0.276
same,glycan array binding signal (z-score),[22],-0.288
same,glycan array binding signal (z-score),[23],-0.281
same,glycan array binding signal (z-score),[24],-0.211
same,glycan array binding signal (z-score),[25],-0.303
same,glycan array binding signal (z-score),[26],-0.307
same,glycan array binding signal (z-score),[27],-0.31
same,glycan array binding signal (z-score),[28],-0.307
same,glycan array binding signal (z-score),[29],-0.311

# — the supplement of paper PMC8728848
